Series [1] deals with the molecule itself. In words: SEC; crude lysates in PBS of transfected BHK21 cells on a Superose-6 column; fractions coated on ELISA plates and βGal detected with a murine anti-βGal antiserum.
Series [2] deals with the molecule itself. Put plainly: dynamic light scattering; 1 mg/mL protein in 10 mM potassium phosphate buffer, pH 7.4; supernatant after centrifugation at 14.000 x g; DLS 802 instrument.

The record followed here is paper PMC4099185, “Structural Integrity of the Antigen Is a Determinant for the Induction of T-Helper Type-1 Immunity in Mice by Gene Gun Vaccines against E.coli Beta-Galactosidase” (PLoS ONE, 2014).

B1: delta-βGal, βGal with deletion of the N-terminus ([…]), expressed from pCI-delta-βGal (domain or fragment)
chain: not shown
notes: beta-galactosidase of E. coli without […] (includes the alpha peptide); numbering according to NCBI Acc; No. YP_008570279; Methods say […] deleted; results say 40 residues deleted from the N-terminus; also called ΔβGal; ΔN; source: BHK21 cells, transfected with pCI-delta-βGal, in lysate (PBS)
Take B1: the “stoichiometry N” value in series [1] was found to be 2.

B2: recombinant 6×His-tagged N-terminally truncated delta-βGal (domain or fragment)
chain: not shown
notes: beta-galactosidase of E. coli without […]; ORF excised from pCI-delta-βGal by NcoI/NotI and ligated into pHIS-parallel II; numbering according to NCBI Acc; No. YP_008570279; Beside the dimer the preparation holds high molecular weight aggregates (DLS, SEC); also called recombinant delta-βGal; truncated 6×HIS-tagged ΔβGal
Take B2: in series [2], the “stoichiometry N” value was 2.
